# According to the BET-seq Pho4 binding data (Le et al. 2018):
# Some of the results follow. These are noisy estimates, calculated here from bound and input reads.
# Target: T1, Pho4 (S. cerevisiae) (UniProt P07270)
# T1 sequence: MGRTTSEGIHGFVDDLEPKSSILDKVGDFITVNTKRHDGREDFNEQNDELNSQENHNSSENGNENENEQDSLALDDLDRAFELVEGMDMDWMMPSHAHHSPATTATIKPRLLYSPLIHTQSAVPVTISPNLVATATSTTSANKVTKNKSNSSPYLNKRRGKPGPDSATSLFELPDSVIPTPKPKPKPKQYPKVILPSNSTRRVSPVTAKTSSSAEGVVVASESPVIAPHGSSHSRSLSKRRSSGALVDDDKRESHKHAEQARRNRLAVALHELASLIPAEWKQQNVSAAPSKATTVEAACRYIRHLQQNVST
# Assay: relative binding free energy (BET-seq); higher = weaker binding
# Settings: reference: library average
row,Sequence,relative binding free energy [kcal/mol]
1,CTGAACACGTGGAGGG,-0.12
2,TATCTCACGTGGTTTT,0.12
3,GCAGGCACGTGCTGGG,-0.12
4,AGGAACACGTGGATGG,0.09
5,AGGAGCACGTGCGGTA,-0.23
6,CGAAGCACGTGGTATG,-0.12
7,TCGTACACGTGATGTT,0.29
8,AAAGGCACGTGATTTT,-0.04
9,CGGGGCACGTGAGATA,0.15
10,AGGAACACGTGTTGTG,0.04
11,TGTGTCACGTGCGGAG,0.02
12,CTGGGCACGTGGCGGT,-0.24
13,ATATACACGTGGTATG,-0.07
14,TAGGTCACGTGTCTTG,0.08
15,AGTTGCACGTGTCTTT,-0.11
16,CAGTACACGTGTGTTT,0.22
17,AGAGTCACGTGGAGGC,0.09
18,TCTGTCACGTGACGTG,0.26
19,GGGATCACGTGGTCGT,0.18
20,TGGATCACGTGCTGTC,0.33
21,ATAGGCACGTGAGTAG,0.09
22,CGCGTCACGTGTTATT,0.19
23,TTTTGCACGTGTTCAA,0.15
24,GTTGGCACGTGCCAGG,-0.19
25,TTCTTCACGTGGTCGG,0.13

row,Sequence,relative binding free energy [kcal/mol]
1,TCGGGCACGTGGAAGT,-0.04
2,AAGCGCACGTGGAGCG,0.02
3,CGGTGCACGTGTTGCG,-0.15
4,GTAAACACGTGTCGTG,0
5,TATTACACGTGGCGGA,-0.01
6,TAAATCACGTGGTTAT,0.09
7,TTGCGCACGTGAGGTA,0.2
8,CTAGTCACGTGGTATG,-0.08
9,AAATGCACGTGTGTCG,-0.07
10,CTTAGCACGTGGTTGA,-0.14
11,ATTGTCACGTGTCTTG,0.11
12,AATGGCACGTGTCTTT,-0.14
13,TGGCGCACGTGGTTAT,-0.2
14,GTGTCCACGTGGTTGG,0
15,CTGGTCACGTGTGGAG,0.04
16,TTAATCACGTGTTGCA,-0.02
17,AGGTTCACGTGTCTGT,0.29
18,ATGCTCACGTGAAGGG,0.36
19,GGTTACACGTGTATTT,0.12
20,GTTATCACGTGTATTC,0.27
21,GTGAGCACGTGGAGGT,-0.08
22,TAAATCACGTGAGTGA,0.23
23,AAGGACACGTGGTTTG,0
24,CTTGTCACGTGCTTGG,-0.09
25,GGCGGCACGTGCGGGC,-0.16

row,Sequence,relative binding free energy [kcal/mol]
1,CGGGACACGTGGTGTT,-0.04
2,CATAACACGTGTTGTT,-0.1
3,TTATTCACGTGAAGTT,0.45
4,TGCAACACGTGCGTGG,-0.1
5,TTTAGCACGTGTTTGC,0.02
6,TCTGGCACGTGTGTGT,-0.07
7,GTTTGCACGTGTCTAG,0.06
8,TCAGTCACGTGAACGG,0.41
9,TCGTCCACGTGAGTGG,0.16
10,GATGTCACGTGAATTT,0.37
11,CTTTGCACGTGCGGGT,-0.06
12,TGGGGCACGTGGTATT,-0.14
13,TTGTACACGTGCCGGT,-0.14
14,CTTAGCACGTGTGTTT,0.05
15,GTAGTCACGTGTAATT,0.29
16,GGTAACACGTGTTTTC,0.12
17,TTTCACACGTGTTGTA,0.19
18,TATCGCACGTGAGGAG,0.38
19,GGCTACACGTGAGGGT,0.35
20,TGTGTCACGTGTCTTC,0.18
21,GGTCGCACGTGTCTGG,0.06
22,TTGGGCACGTGTATAC,-0.15
23,ATCGGCACGTGAGGCG,0.09
24,TTGGGCACGTGCGAGC,-0.18
25,TTGAGCACGTGTACGT,-0.17

row,Sequence,relative binding free energy [kcal/mol]
1,GCTATCACGTGGGGGA,-0.02
2,GTGTTCACGTGCATGG,0.3
3,GGAGGCACGTGGTGCA,-0.22
4,GGCAGCACGTGAGTGG,0.04
5,GTAGGCACGTGTGGGT,0.06
6,CTGGTCACGTGAATGT,0.4
7,TCTTTCACGTGGCTGG,0.35
8,TCTGGCACGTGCTGTG,-0.1
9,AGGAGCACGTGTCGCG,-0.03
10,GTTCACACGTGATATT,0.31
11,TCAGGCACGTGGTTGT,-0.22
12,CTGGTCACGTGCGGTG,0.09
13,TTTTGCACGTGTTCTT,0
14,GGTGCCACGTGAAATG,0.43
15,AGTGTCACGTGTACAT,0.11
16,AATGACACGTGGGTTG,-0.04
17,TGTCTCACGTGTTGTT,0.21
18,TGCTACACGTGTGTGT,0.05
19,AGGATCACGTGCTATG,0.06
20,TGTCGCACGTGTGAGA,-0.01
21,GTTTTCACGTGAAAGT,0.38
22,TCTTACACGTGGTTGA,0
23,CGTGTCACGTGTTCGA,0.11
24,TAGGACACGTGAGCGG,0.05
25,TGGGCCACGTGCTCGG,-0.19

row,Sequence,relative binding free energy [kcal/mol]
1,GGAGTCACGTGGGTCA,0.07
2,AATTTCACGTGTTACG,0.37
3,GCGGACACGTGGCGGT,-0.16
4,TATGTCACGTGAGAAG,0.43
5,TCGTACACGTGGGATT,0.02
6,GGGTACACGTGGCATT,0.03
7,TGGGTCACGTGGTACG,0.01
8,TGGATCACGTGGTTTC,0.18
9,TGTGACACGTGGCAGA,0.05
10,TGTGGCACGTGCCGGG,-0.1
11,CGGTTCACGTGTGTGA,0.13
12,GTGGGCACGTGGCTAG,-0.19
13,AGGGGCACGTGGTAAA,-0.12
14,TGTGCCACGTGGAGTG,-0.07
15,GCGCTCACGTGATTGG,0.43
16,GGTACCACGTGTTAGG,0.11
17,ACTGTCACGTGTAAGT,0.16
18,GCTGTCACGTGCTTTG,0.09
19,TGTGCCACGTGAGAGT,0.18
20,TCAGTCACGTGGAGTG,-0.04
21,GGTGCCACGTGTTAGA,-0.11
22,ACAATCACGTGGGTGG,0.07
23,AGCGGCACGTGTGCGA,-0.11
24,ATGATCACGTGTGTTT,0.25
25,AGTTGCACGTGGTCCG,-0.14

row,Sequence,relative binding free energy [kcal/mol]
1,TGTATCACGTGAGGTT,0.22
2,CAGTGCACGTGAGTGG,0.19
3,CGGGACACGTGAATGT,0.42
4,GTTGACACGTGAATGT,0.17
5,ATTGCCACGTGGGTAA,-0.21
6,AACATCACGTGGTTGT,0.16
7,GCGGGCACGTGGAGTG,-0.06
8,AAGTGCACGTGATGAT,0.08
9,GTCATCACGTGGGGGG,0.07
10,GTGAACACGTGGATTG,0
11,GACTGCACGTGGGGTA,-0.11
12,GGAGTCACGTGTCTGT,0.26
13,GAATGCACGTGTTTTT,0.16
14,GGGTTCACGTGGTACA,0.25
15,AGTGACACGTGAGTGT,0.24
16,TAAGTCACGTGAGAGT,0.53
17,GTAGACACGTGTTAGG,0.08
18,GTGATCACGTGTTTTA,0.24
19,ACGTGCACGTGGGAAG,-0.06
20,GTTCGCACGTGCGGAT,0.07
21,CAGGACACGTGTTAGG,0.1
